These are yes or no findings as the source states them, for the method shown. In cells and extracts the contact can be indirect. Some entries that bind do so weakly or less than the wild type.
Tests used:
[1] = biological target: G-protein β2 subunit (Gβ2) (human (endogenous in HEK-293)) (UniProt P62879); assay: co-IP; nuclear fractions (100 µg) of HEK-AT1R cells treated with AngII (1 µM for 30 min); pull-down with a Gβ2 antibody and ProtG (+) or only ProtG (−); immunoblot
[2] = biological target: myc-tagged human Gγ12 (human) (UniProt Q9UBI6); assay: co-IP; HEK-AT1R cells transiently transfected with myc-Gγ12, AT1R activated with AngII; association of myc-Gγ12 with endogenous proteins
[3] = biological target: amino-terminal FLAG-tagged human Gβ2 (human) (UniProt P62879); assay: co-IP; anti-M2 FLAG beads, FLAG-Gβ2/mutants and MEF2-expressing cells; immunoblot quantified (Kodak Imager), n = 3

The chains behind the UniProt entries cited, without tags or fusion partners. Where a name states a change or a piece, a line headed by the entry shows the natural chain unless it says otherwise.
UniProt Q9UBI6: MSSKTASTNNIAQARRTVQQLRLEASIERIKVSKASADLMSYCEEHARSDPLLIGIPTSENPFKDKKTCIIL
UniProt Q04206: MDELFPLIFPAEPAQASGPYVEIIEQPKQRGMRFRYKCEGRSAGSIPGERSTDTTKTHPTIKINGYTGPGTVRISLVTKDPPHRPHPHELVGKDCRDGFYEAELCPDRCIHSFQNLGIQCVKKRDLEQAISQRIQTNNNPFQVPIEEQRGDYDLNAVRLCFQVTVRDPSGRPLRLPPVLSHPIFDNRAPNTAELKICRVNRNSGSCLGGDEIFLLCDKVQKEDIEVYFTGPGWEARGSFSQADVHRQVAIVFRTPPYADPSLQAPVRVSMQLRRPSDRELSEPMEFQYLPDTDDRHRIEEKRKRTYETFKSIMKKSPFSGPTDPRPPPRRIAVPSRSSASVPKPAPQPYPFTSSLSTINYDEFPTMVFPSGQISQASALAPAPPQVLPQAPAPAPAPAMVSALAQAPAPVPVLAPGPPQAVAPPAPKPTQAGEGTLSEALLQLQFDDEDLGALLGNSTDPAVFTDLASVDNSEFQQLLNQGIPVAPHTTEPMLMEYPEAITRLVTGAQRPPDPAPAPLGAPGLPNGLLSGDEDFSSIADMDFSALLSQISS
UniProt Q02078: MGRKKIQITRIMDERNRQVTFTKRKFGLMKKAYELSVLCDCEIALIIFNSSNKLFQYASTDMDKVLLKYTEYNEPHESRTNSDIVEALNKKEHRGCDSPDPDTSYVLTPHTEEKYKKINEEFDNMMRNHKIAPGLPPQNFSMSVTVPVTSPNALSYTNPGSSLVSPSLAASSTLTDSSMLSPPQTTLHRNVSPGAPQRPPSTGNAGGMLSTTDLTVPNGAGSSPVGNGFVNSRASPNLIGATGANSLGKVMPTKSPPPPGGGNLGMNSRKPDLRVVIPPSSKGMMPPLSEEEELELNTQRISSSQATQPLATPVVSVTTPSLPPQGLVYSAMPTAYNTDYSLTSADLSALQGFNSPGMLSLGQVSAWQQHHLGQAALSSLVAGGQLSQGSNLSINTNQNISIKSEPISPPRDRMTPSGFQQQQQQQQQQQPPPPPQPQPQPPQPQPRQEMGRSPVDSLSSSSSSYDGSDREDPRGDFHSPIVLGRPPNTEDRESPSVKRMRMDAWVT
UniProt P20226: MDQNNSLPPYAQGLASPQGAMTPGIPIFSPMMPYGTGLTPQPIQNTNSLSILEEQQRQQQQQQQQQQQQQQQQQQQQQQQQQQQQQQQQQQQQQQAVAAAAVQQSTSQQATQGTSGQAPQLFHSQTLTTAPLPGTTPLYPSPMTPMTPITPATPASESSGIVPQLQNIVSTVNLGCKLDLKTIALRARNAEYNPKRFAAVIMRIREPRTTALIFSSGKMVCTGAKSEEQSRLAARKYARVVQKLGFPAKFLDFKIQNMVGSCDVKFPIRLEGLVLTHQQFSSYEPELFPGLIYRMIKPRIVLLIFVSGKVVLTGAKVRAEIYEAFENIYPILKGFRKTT
UniProt P43694: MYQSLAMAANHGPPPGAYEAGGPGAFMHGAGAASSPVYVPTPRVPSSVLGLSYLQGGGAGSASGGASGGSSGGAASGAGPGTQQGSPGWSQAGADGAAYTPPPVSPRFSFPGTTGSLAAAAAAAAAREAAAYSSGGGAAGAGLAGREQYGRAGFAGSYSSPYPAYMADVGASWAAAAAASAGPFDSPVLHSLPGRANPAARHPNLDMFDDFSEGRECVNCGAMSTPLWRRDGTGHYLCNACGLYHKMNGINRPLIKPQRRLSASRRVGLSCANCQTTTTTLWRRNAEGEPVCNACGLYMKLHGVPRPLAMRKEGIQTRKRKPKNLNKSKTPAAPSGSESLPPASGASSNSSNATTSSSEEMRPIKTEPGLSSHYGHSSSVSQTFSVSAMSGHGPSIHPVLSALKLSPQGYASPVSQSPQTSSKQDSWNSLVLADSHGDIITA
UniProt O43707: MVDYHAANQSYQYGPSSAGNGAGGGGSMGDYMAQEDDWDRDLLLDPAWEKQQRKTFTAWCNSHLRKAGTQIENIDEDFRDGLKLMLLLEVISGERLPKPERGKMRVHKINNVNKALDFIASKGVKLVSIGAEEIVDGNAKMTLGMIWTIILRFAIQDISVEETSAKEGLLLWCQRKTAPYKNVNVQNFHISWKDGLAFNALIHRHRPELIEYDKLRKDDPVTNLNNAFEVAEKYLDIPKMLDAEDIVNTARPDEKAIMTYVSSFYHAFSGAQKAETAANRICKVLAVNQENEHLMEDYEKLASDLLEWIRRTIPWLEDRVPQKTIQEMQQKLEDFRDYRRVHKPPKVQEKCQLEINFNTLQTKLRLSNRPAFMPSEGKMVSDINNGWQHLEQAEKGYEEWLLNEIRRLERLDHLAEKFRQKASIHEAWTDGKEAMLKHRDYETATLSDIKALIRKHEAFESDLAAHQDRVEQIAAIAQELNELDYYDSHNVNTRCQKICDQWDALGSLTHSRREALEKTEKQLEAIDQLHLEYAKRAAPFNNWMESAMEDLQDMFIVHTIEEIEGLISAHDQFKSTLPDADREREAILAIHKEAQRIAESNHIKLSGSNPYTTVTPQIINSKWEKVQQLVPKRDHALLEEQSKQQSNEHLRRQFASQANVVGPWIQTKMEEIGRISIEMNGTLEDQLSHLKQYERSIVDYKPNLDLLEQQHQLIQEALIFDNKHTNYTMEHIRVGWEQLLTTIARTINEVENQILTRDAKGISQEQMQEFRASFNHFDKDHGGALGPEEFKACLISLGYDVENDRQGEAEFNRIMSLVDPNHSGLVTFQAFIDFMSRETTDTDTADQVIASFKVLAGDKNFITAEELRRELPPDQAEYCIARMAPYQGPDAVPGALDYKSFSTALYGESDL
UniProt P28482: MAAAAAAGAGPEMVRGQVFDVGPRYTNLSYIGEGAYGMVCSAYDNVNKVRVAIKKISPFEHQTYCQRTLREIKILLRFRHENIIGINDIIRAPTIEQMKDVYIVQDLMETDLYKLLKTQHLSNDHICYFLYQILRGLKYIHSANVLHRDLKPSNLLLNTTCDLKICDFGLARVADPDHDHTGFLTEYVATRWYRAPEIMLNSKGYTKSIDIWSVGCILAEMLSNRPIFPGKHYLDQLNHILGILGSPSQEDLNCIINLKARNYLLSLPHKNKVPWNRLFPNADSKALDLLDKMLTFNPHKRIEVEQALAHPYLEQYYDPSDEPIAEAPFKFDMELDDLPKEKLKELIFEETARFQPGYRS
UniProt P40763: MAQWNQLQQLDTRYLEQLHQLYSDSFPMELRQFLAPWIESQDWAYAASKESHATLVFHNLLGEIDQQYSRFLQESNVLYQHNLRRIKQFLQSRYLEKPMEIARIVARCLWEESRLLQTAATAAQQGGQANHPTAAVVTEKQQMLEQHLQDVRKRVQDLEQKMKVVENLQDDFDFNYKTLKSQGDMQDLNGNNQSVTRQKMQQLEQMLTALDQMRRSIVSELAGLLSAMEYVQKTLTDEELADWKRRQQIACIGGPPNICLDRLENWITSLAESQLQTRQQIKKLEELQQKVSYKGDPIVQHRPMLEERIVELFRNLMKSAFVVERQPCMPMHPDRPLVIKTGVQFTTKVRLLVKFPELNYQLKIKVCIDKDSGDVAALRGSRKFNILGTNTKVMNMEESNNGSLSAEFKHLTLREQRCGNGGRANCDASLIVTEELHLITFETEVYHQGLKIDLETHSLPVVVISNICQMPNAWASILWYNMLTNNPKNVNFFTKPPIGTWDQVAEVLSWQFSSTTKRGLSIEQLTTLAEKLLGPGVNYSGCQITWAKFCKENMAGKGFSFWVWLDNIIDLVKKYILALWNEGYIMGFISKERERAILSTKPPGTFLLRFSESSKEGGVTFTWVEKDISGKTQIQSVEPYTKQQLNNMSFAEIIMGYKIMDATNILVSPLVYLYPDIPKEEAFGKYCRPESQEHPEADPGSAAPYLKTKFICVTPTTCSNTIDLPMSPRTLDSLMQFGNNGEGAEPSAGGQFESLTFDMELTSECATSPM
UniProt P42224: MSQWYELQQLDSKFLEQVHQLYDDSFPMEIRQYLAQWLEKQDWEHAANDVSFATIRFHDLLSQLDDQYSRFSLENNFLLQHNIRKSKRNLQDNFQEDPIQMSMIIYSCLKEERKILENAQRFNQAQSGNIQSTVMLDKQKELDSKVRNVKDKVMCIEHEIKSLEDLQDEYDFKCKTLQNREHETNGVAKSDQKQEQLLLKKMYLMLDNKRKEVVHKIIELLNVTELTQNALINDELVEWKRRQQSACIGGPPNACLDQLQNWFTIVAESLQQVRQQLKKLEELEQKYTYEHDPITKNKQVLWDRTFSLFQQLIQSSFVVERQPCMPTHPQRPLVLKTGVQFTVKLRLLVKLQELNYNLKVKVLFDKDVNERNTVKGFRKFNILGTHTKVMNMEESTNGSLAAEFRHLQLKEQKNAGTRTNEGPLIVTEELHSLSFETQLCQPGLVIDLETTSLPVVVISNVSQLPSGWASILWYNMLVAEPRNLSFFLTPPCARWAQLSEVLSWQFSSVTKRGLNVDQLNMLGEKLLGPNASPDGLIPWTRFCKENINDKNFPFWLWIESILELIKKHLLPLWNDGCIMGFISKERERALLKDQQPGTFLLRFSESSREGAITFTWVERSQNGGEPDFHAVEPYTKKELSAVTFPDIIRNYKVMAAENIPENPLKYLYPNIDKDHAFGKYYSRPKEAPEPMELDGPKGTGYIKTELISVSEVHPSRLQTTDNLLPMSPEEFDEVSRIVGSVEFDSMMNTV
UniProt P27361: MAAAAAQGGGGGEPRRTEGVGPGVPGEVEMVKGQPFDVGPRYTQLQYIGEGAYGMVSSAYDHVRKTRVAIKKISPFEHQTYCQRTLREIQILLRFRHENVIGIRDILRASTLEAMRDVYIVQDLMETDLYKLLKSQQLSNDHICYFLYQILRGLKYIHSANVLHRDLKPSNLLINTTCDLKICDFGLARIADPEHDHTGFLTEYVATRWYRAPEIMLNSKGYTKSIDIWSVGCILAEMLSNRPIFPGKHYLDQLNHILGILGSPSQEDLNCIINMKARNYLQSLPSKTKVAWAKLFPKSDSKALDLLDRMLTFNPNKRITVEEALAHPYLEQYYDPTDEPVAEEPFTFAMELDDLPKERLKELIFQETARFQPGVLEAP

Row | binding [1] | binding [2] | binding [3] | Substance
1 | no binding |  |  | p65 NFκB (from UniProt Q04206 1-551)
2 | binds | binds |  | myocyte enhancer factor 2A (MEF2A) (from UniProt Q02078 1-507)
3 |  | binds |  | TATA-binding protein (TBP) (from UniProt P20226 1-339)
4 | no binding |  |  | GATA binding protein (GATA4) (from UniProt P43694 1-442)
5 | binds |  |  | α-actinin-4 (from UniProt O43707 1-911)
6 | no binding |  |  | phosphorylated extracellular signal-regulated kinase 2 (pERK2 of pERK1/2) (from UniProt P28482 1-360) (enzyme)
7 | binds |  |  | signal transducer and activator of transcription 3 (STAT3) (from UniProt P40763 1-770)
8 | binds |  |  | HDAC5 (from UniProt Q9UQL6 1-1122) (enzyme)
9 | binds |  |  | STAT1 (from UniProt P42224 1-750)
10 | no binding |  |  | phosphorylated extracellular signal-regulated kinase 1 (pERK1 of pERK1/2) (from UniProt P27361 1-379) (enzyme)
11 |  | binds |  | G-protein β2 subunit (Gβ2) (from UniProt P62879 1-340)
12 |  |  | binds | MEF2A in 'FLAG-Gβ2/mutants and MEF2-expressing cells' (from UniProt Q02078 1-507)

Source: publication PMC3541368
